Measured values published in PubChem BioAssay AID1508624 (National Center for Advancing Translational Sciences (NCATS), 2021).
About 120 (0.25%) of roughly 48,000 compounds were called active. Inconclusive results (about 4%) are left out. Calls follow the shape of the dose curve; as a rule, active = well fitted activation curve with a large enough effect; inconclusive = small, poorly fitted or top-dose-only effect, or another doubt; inactive = no such curve, though single readings can be large or run the other way. The list shows a part of the results.

assay: Primary qHTS for Identification of Small Molecule Activators of Huntingtin-Antisense Promoter Activity; conditions: HEK293 HTT-AS promoter firefly luciferase reporter, 24 h; series mostly up to 57.5 µM; activity change, positive = activation: at the top concentration; also: nearly all actives have a fitted effect of over 55% in size
How it was run: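 Luminescence was read after Dual-Glo reagent and a 10 min room-temperature incubation. Values were normalized to vehicle (0% activity) and zero RLU (-100% activity). Reporter HEK293 cells had been exposed to compounds (up to 57.5 uM final) for 24 h.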

Activity change, positive = activation, inactive:
c1ccc(-c2nn3c(c2-c2ccnc4cc(OCCN5CCOCC5)ccc24)CCC3)nc1 -23.3%, Cc1ccccc1CSc1nc2cccnc2n1Cc1ccc(C(=O)NCCc2cccs2)cc1 9.86%, COc1ccc(Cl)cc1N(C)C(=O)C(=O)Nc1ccc2nc3n(c(=O)c2c1)CCCCC3 -10.9%, Cc1ccc(CN(C(=O)COc2ccc(Br)cc2)c2ccccn2)o1 -40.9%, Cc1ccc(N2CCN(C(=O)c3noc4c3COc3ccc(C)cc3-4)CC2)c(C)c1 -19.8%, COc1ccc(NC(=O)CSc2nc(-c3ccccc3)nc3c2Cc2c(CO)cnc(C)c2O3)cc1Cl -13.5%, Cc1ccc(C)c(N2CCN(C(=O)C(C)n3c(C)c4cnn(-c5ccccc5)c(=O)c4c3C)CC2)c1 (centres undefined) -5.27%, Cc1ccc(CNC(=O)c2c(-c3cccc(Br)c3)noc2C)o1 -18.5%, CC(Nc1ccc(-c2nc(-c3ccccn3)no2)cc1[N+](=O)[O-])c1ccccc1 (centres undefined) 14.3%, COC(=O)c1ccc(OCC2c3cc(OC)c(OC)cc3CCN2C(=O)c2ccccc2F)cc1 (centres undefined) -21%, Cc1ccc(C)c(Cn2nc(C)n3c(cc4cc(C)ccc43)c2=O)c1 -7.23%, CCCCCn1c(=N)n(CC(O)COc2cccc(C)c2)c2ccccc21 (centres undefined) -33.2%, O=C(CSCc1cnn(-c2ccccc2)c1-n1cccc1)Nc1ccc(F)cc1F -24.3%, CCCCOc1ccc(C2=NC(c3ccccc3)=Nc3ccc(OC)cc3N2)cc1 13.9%, Cn1c(=O)c2c(-c3ccccc3Br)n(CCc3ccccc3)cc2n(C)c1=O -28.1%, O=C1O[C@H]([C@@H](O)CO)C(O)=C1O -5.75%, Clc1ccccc1Cc1cn2cc(-c3ccccc3)nc2s1 -8.5%, CCc1ccc(NC(=O)CSc2nnc(-c3cc4occc4n3C)n2-c2ccccc2C)cc1 -17.5%, C=CCc1c(C)nc2nc(SCC(=O)Nc3ccc(OCC)cc3)nn2c1C 2.47%, Cc1cc(C)cc(NC(=O)C2(c3cccs3)CCOCC2)c1 -13.6%, COc1ccccc1CNC(=O)Cn1nc(C)c2nn(-c3ccc(Cl)cc3)c(C)c2c1=O -43.1%, CC(C)c1ccc(Nc2ncnc3c2c(-c2ccccc2)cn3-c2ccccc2)cc1 2.93%, CC(C)COc1ccccc1C1CC(=O)Nc2cc3c(cc21)OCO3 (centres undefined) -47.3%, COc1ccccc1NC(=O)CSc1nnc2c3ccccc3n(C)c2n1 6.33%, Clc1cccc(-n2ncc3c(N4CCN(Cc5ccccc5)CC4)ncnc32)c1 -2.58%, COc1cccc(CNC(=O)Cn2ccc3cc(S(=O)(=O)N4CCC(C)CC4)ccc32)c1 -28.3%, Cc1cc(C)cc(OCC(=O)N(Cc2ccc(C)o2)C2CCS(=O)(=O)C2)c1 (centres undefined) -18.9%, Cc1ccc(-c2nn3c(=O)cc(CN4CCN(C(=O)Nc5cc(Cl)ccc5C)CC4)nc3s2)cc1 -6.62%, CCC(CC)C(=O)Nc1ccc2nc(SCC(=O)N3c4ccccc4CC3C)sc2c1 (centres undefined) -28.4%, CC(C)Oc1ccc(CNC(=O)c2ccc3nc(Cc4ccccc4)oc3c2)cc1 -16.7%, CCOC(=O)c1c(C)sc(-c2c(-c3ccc(OC)c(F)c3)[nH]c3c2c(=O)[nH]c(=O)n3C)c1O -28.4%, Clc1ccc(C(c2ccccc2Cl)C(Cl)Cl)cc1 (centres undefined), COc1ccc(Cl)cc1NC(=O)c1c(NCc2ccc(C)o2)sc2c1CCCC2 -7.07%, COCCNC(=O)c1cc2c(Cl)nc3ccc(C)cc3c2s1 -2.02%, C=C1C(=CC=C2CCCC3(C)[C@@H]([C@H](C)C=CC=CC(O)(CC)CC)CC[C@@H]23)C[C@@H](O)C[C@@H]1O (some centres undefined) -17.8%, Cc1ccc(CN(Cc2ccco2)C(=O)c2oc3c(C)c(C)ccc3c2C)cc1 -26.7%, COc1cccc(N(CC(=O)N2CCC(C)CC2)S(=O)(=O)c2ccc(C)cc2)c1 -23%, COc1cc(OC)c(Nc2ncnc3onc(-c4cccc(Cl)c4)c23)cc1Cl -14.2%, CN(C)c1ccc(C(=C2C=CC(=[N+](C)C)C=C2)c2ccccc2)cc1 -96%, CCC(C)NC(=O)CSc1nc2cc3c(cc2c(=O)n1CCCC(=O)NCc1ccc2c(c1)OCO2)OCO3 (centres undefined) -9.9%, CCOc1ccccc1CNC(=O)CN1C(=O)CCc2cc(S(=O)(=O)N3CCCCC3)ccc21 -21.1%, Cc1cccc(OCC(=O)Nc2ccc3nc(Nc4cccc(Cl)c4)cc(C)c3c2)c1 -33.3%, c1ccc(CNc2nc(N3CCOc4ccccc43)nc3c2CCCC3)cc1 -27.4%, COc1ccccc1NC(=O)c1c(NC(=O)c2ccccc2Cl)sc2c1CCC2 -26.8%, CC(=O)N1CCc2c(sc3c2c(=O)n(Cc2ccccc2)c(=O)n3CC(=O)Nc2ccc(C)c(F)c2)C1 -28.5%, COc1ccc(CN2C(=O)C(NC(=O)c3ccccc3OC)(C(F)(F)F)N=C2c2ccccc2)cc1 (centres undefined) -23.3%, CCc1ccc(NC(=O)CCn2cnc3ccccc3c2=O)cc1 10.7%, CCc1ccc(S(=O)(=O)c2nnn(-c3cccc(C)c3)c2N)cc1 -33.3%, COc1ccc(NC(=O)Cn2ccn(-c3ccccc3)c(=O)c2=O)cc1 -5.47%, Cc1cccc(C)c1OCC(=O)N[C@@H](Cc1ccccc1)[C@@H](O)C[C@H](Cc1ccccc1)NC(=O)[C@H](C(C)C)N1CCCNC1=O, Cc1ccc(-n2nc(C)c3c(C(=O)Nc4ccc(Br)c(C)c4)cc(C)nc32)cc1 -7.39%, COCCNC(=O)CSc1nc(-c2ccc(C)cc2)nc2c1c(=O)n(C)c(=O)n2C -2.32%, COC(=O)C1=C(C)NC(=O)C1(NC(=O)c1ccccc1C)C(F)(F)F (centres undefined) -1.15%, COc1ccc(CCC(=O)NCc2ccc3c(c2)CCN3C(=O)c2ccc(C)cc2)cc1 -32.4%, COc1cccc(-c2nc(SCC(=O)N3CCc4ccccc43)c3c(=O)n(C)c(=O)n(C)c3n2)c1 -0.0467%, O=C(NCc1ccc(F)cc1)C1CCN(C(=O)c2cnn(-c3ccccc3)c2-n2cccc2)CC1 -28.8%, CCCCN(CC)CCCNC(=O)c1cn(C)c2ccc(S(=O)(=O)N(C)C3CCCCC3)cc2c1=O -13.2% [at 11.5 µM, percent change from vehicle, -100% = no light], CCOc1cc(C(=O)NCc2ccc3c(c2)CCN3C(=O)CC)cc(OCC)c1OCC -6.16%, COc1cccc(CNC(=O)CCC(=O)N2CC3CCCN3c3ccccc32)c1 (centres undefined) -9.26%, Cc1ccccc1NC(=O)CN(C)S(=O)(=O)c1cccc2nsnc12 -5.41%, CCC(Cn1nnc2ccccc2c1=O)NC(=O)Nc1cccc(Cl)c1 (centres undefined) -26.4%, COc1ccc(-c2[nH]ncc2C(=O)NCc2ccc(F)cc2)cc1 -15.8%, Cc1ccc(C(=O)N2CCN(c3ccccc3F)CC2)cc1NC(=O)c1nsc2ccccc12 -26.1%, CCc1cccc(NC(=O)Cn2c(=O)n(CC3CCC(C(=O)NCCc4ccccc4)CC3)c(=O)c3ccccc32)c1 (centres undefined) -27.5%, COc1cc(C(=O)Nc2ccc(-c3cc(C(F)(F)F)nn3-c3ccccc3)cc2)cc(OC)c1OC -16.2%, COc1cc(OC)c(NC(=O)Cn2c(=O)cc(C(F)(F)F)c3c(C)nn(C)c32)cc1Cl -6.53%, Cc1ccccc1NC(=O)CSc1nc2ccc(NC(=O)COc3ccccc3F)cc2s1 -25.5%, COCCNC(=O)C(=O)Nc1c2c(nn1-c1ccccc1)CS(=O)(=O)C2 -8.43%, CCc1ccccc1NC(=O)c1cnn2c(C(F)(F)F)cc(-c3ccc(OC)c(OC)c3)nc12 -13%, Cc1cccc(NC(=O)Cn2nc(N3CCN(c4ccccc4)CC3)ccc2=O)c1C -18.4%, CCOC(=O)c1cnn(-c2cccc(F)c2)c1C1CCNCC1 -8.92%, COc1ccccc1OCc1ccc(C(=O)Nc2ccc(C)c(C)c2)o1 0.95%, CCOc1ccc(CCNC(=O)Cn2nc(C)c3c(C)n(-c4ccccc4)nc3c2=O)cc1OCC 0%, CCOC(=O)c1c(C)sc(-c2c(-c3cc(C)ccc3C)[nH]c3c2c(=O)[nH]c(=O)n3C)c1O -22.6%, CCn1cc2nc(SCc3cccc(OC)c3)n(Cc3ccc(Cl)cc3)c(=O)c2n1 -39.2%, CCCOc1ccc(CNC(=O)C2CCN(c3nc4ccccc4nc3C(F)(F)F)CC2)cc1 6.05%, COC(=O)c1cc2sccc2n1Cc1ccccc1 -19%, O=[N+]([O-])c1ccc(O)c2ncccc12 -35.9%, CC1=C(C(=O)Nc2ccccc2Cl)C(c2cccs2)n2ncnc2N1 (centres undefined) -18.8%, O=C(CCC1N=C2c3ccccc3N=C(SCc3cccc(F)c3)N2C1=O)NC1CCCCC1 (centres undefined) -0.429%, Cc1cc(NS(=O)(=O)c2ccc(NC(=O)COc3c(C)cc(Br)cc3C)cc2)no1 -14%, O=S(=O)(NCc1ccccc1)c1ccc2[nH]c3c(c2c1)CCCCC3 -31.7%, COc1cccc(NS(=O)(=O)c2ccc3[nH]cc(C(=O)NC4CCCCC4)c(=O)c3c2)c1 -48.3%, COc1ccccc1CCNC(=O)Cc1c(C)c2c(cc(C)c3c(C)coc32)oc1=O -13.8%, COc1ccc(N2C(=O)C(CC(=O)Nc3ccc(F)cc3)N(CCC3=CCCCC3)C2=O)cc1 (centres undefined) -29.6%, CN(C(=O)Nc1cn(C)c(=O)c2ccccc12)c1ccccc1 -22.6%, COc1ccc(Cl)cc1NC(=O)CN1c2ccccc2S(=O)(=O)c2ccccc21 -18.8%, O=C(CSC1=Nc2ccccc2N=C(c2ccc(F)cc2)C1)Nc1cc(F)ccc1F -5.91%, COCCCNC(=O)c1c(NC(=O)c2cc(=O)c3cc(C)c(C)cc3o2)sc2c1CCCC2 16.3%, CCCN1C(=O)CN(C2CCCCCC2)C(=O)C1c1ccc(OCC)c(OC)c1 (centres undefined) -23.7%, CCCCNc1cc(NC2CCCCC2)c2c3c(onc13)-c1ccccc1C2=O -24.3%, CCc1ccc(N2C(=O)CS(=O)(=O)C23C(=O)N(Cc2ccccc2)c2ccccc23)cc1 (centres undefined) -19.5%, COc1cc(-c2noc(-c3nnn(-c4ccc(Cl)cc4)c3C)n2)cc(OC)c1OC -7.13%, Cc1ccc(-n2nc(CO)c(C(=O)NCCc3ccccc3)n2)cc1C -14.2%
